viability, T/C data for 2 compounds are collected here from PubChem BioAssay AID1963439 (Molecular Pharmacology Branch, DTP, NCI, 2024).

The subject of the assay is NCI-H196 complex spheroids with HUVEC/MSC, growth % T/C. The assay can be described thus: Anticancer human tumor NCI-H196 cell line growth inhibition [Asc].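 Also: spheroids exposed to compound for 7 days before measurement; 100% = DMSO vehicle control wells.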 The settings on record: stronger effect = lower value. As for the experimental part:
Multicellular complex tumor spheroid response to apoptosis pathway targeting inhibitors Alrizomadlin, Pelcitoclax, and Dasminapant in combination with a variety of drugs and investigational agents in selected tumor cell lines
The MDM2 inhibitor alrizomadlin, the Bcl-2/Bcl-xL inhibitor pelcitoclax, and the IAPs inhibitor dasminapant were evaluated both individually and in combination with standard of care and investigational anticancer small molecules within a complex spheroid model of solid tumors. . Complex spheroids include a stromal component modeled by human endothelial cells (HUVEC) and fibroblasts modeled by human mesenchymal stem cells (MSCs). The concentration ranges selected for each drug and investigational agent were based upon clinically achievable concentrations if the clinical Cmax of the agent was known.
Compounds. […] If the clinical Cmax for an agent had not been determined, the highest concentration tested was 10 microM. […]

For part of its entries the source gives two or more results. Only these are listed. There may be further records. Values given together are repeats (runs, samples, wells, individuals or studies). Dates in brackets are months of testing. Counts like (3×) give the number of equal values in this list.

`CCN1C(C(=O)NC23CCC(C(=O)O)(CC2)CC3)C(c2cccc(Cl)c2F)C2(C(=O)Nc3cc(Cl)ccc32)C12CCCCC2` (configuration not stated): the viability, T/C (compound alone 3 µM) is 112, 131, 120 (3×), 113, 111 (2×), 121, 124, 109, 115, 114, 105% [2022-09] and 119% [2022-10].
For the compound `C=C(F)C(=O)N1CCN(c2nc(OCC3CCCN3C)nc3c2CCN(c2cccc4cccc(Cl)c24)C3)CC1CC#N` (configuration not stated), the viability, T/C (compound alone 10 µM) is 94.5%, 84.3% [2022-09] and 1.85% [2022-10].
